From the supplement of paper PMC11417369
± gives the standard deviation of the averaged measurements. The list shows a part of the results.

Tested on: PfAP2-I AP2 domain 3 (GST-tagged)
Experiment: gcPBM binding intensity (ln(normalized median fluorescence intensity)); higher = stronger DNA binding
Method in brief: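 In this array assay, P. falciparum DNA-binding domains with a GST tag, expressed in E. coli, were applied for 1 h to primer-extended double-stranded 36-bp intergenic genomic probes and negative controls on an Agilent 4 × 180k array. Bound protein was visualised with Alexa488 anti-GST antibody at 488 nm. Binding intensity is the highest Masliner-normalised natural-log median intensity across replicate spots of either probe orientation.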

Sequence | gcPBM binding intensity (ln)
ATAATATATATTAAACGTACATAAAATAATTATGGA [XGTACX_site1670] | 7.65 ± 0.41
TAATATTTATGTTAATGTACAAAAAAACAAAACAAA [XGTACX_site301] | 7.85 ± 0.4
GTATGTATATATGTATGTACTTATGTATCATTATTA [XGTACX_site2438] | 7.79 ± 0.028
TATTTTGTTTTAAAAGTACACACTTTTAATTAGATT [CACACA_site1180] | 7.83 ± 0.22
ATAACAAAATGAAGAGTGCATTACCAAGTGGGTAAA [GTGCAC_site9450] | 10.93 ± 0.014
TTAATTTGTTCTTACACACACATATAAATATATTTA [CACACA_site6676] | 8.02 ± 0.54
ATATTTAAGGCGTGTATGCACACGACTATTCCGTAT [CACACA_site1080] | 8.54 ± 0.49
ATGATACTAAAAAATTGTACATATAACAAAAGGTAT [XGTACX_site2527] | 8.08 ± 0.41
CATATATTTTGAAACACACACATATATAATATACAT [CACACA_site1158] | 7.68 ± 0.45
TTATCATTATATAGTTGTACATATTTATTTATAAAA [XGTACX_site2310] | 7.95 ± 0.2
TTTGTATAATACATGTGTACGTATTTTTATATAAAT [XGTACX_site8656] | 8.09 ± 0.29
AGAACTAAAAGAACATGTACATAAATTCTAAATAAT [XGTACX_site4084] | 7.67 ± 0.57
ATATGATCATACTGTGCATGTTAATGCAAATTTTAT [TGCATGCA_site984] | 8.56 ± 0.48
TACATATATTATACATGTACACATTTATACATATCG [XGTACX_site2866] | 7.78 ± 0.35
ATAATTGTCCATTTTTTCTTTTTTTTTTTCTTTTTA [CACACA_negctrl_site928] | 7.55 ± 0.69
TTTTTTTTTATATAAAAAAAAATTTTTATTATTTTA [GTGCAC_negctrl_site347] | 7.46 ± 0.77
CGCACAGACGGACACACACACACATATATATATATA [CACACA_site5249] | 9.4 ± 0.3
AAAAAAAAAAAAAAAACACACATTTAGCAATCTACA [CACACA_site3706] | 8.85 ± 0.41
TTAACAAAACATAAGGTGCTTAAAATTTTATATCAC [GTGCAC_site9839] | 9.81 ± 0.17
TCTGTTAAACAAAAAAGTACTAAAATAATGTAAAAT [XGTACX_site6826] | 8 ± 0.62
ATTATTATATATGTATGTACTTATATAATATATATA [XGTACX_site5198] | 8.04 ± 0.36
TATATATTGTTATATACACACATGTATTTAAAAAAT [CACACA_site5737] | 7.69 ± 0.33
ATATGTACAAGTGTTTATGCTGAACGGAAATCCTGT [CACACA_negctrl_site1372] | 7.71 ± 0.67
TACCTATATAGACACACACACATATATTTATTTATA [CACACA_site6728] | 7.89 ± 0.54
